Results as given in PubChem BioAssay AID485294 (National Center for Advancing Translational Sciences (NCATS), 2010).
About 150 (0.041%) of roughly 370,000 compounds were called active. This list was built around the results that the source calls inconclusive (neither active nor inactive); the mix of calls is not that of the screen. Calls follow the shape of the dose curve; as a rule, active = well fitted inhibition curve with a large enough effect; inconclusive = small, poorly fitted or top-dose-only effect; inactive = flat fitted curve, though single readings scatter. Potencies of inconclusive entries are left out as doubtful fits.
Also: nearly all actives have a fitted effect of over 25% in size.
Potency is read from the fitted curve at half-maximal effect; tags tell the direction and shape of the fitted curve.

These compounds were tested against Beta-lactamase (Escherichia coli (strain K12)) (UniProt P00811) (assay: qHTS Inhibitors of AmpC Beta-Lactamase (assay with detergent)). Conditions: AmpC hydrolysis of nitrocefin, absorbance 480 nm, 0.01% Triton; series mostly up to 114 µM.
Sequence of UniProt P00811 (P00811 whole entry, looked up): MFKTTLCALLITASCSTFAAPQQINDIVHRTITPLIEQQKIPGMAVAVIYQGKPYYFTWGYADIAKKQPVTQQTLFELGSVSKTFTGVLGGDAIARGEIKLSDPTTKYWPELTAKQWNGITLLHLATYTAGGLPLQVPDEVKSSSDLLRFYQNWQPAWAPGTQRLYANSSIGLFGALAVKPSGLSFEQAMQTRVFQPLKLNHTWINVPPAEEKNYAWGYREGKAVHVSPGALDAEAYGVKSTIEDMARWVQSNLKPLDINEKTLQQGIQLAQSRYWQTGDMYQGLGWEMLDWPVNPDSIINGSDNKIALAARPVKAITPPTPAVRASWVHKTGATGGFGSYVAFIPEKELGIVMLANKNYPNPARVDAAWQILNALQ
In short: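 AmpC (5.3 nM in the dispensed reagent) in 20 mM phosphate pH 7.0 with 0.01% (detergent screen) or 0.0001% Triton X-100 was preincubated with compounds for 15 min at room temperature. Nitrocefin was then added from an 800 uM solution, and hydrolysis was followed at 480 nm.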
In the case of `CCn1c(=O)cc(OCC(=O)NCCCN2CCCC2=O)c2ccccc21`, the Potency is reported as inconclusive [inhibitor, partial curve, poor fit]. For `CCc1c(C)sc(NC(=O)c2ccc(Br)o2)c1C(=O)OC`, the Potency was inconclusive [inhibitor, full curve, poor fit]. `COc1ccc(CN(C)CC(=O)N2CCc3ccccc3C2)cc1` was tested, and the Potency was inconclusive [inhibitor, single point]. In the case of `O=C(CSc1nnc2ccccn12)Nc1ccc2c(c1)OCO2`, the Potency is reported as inconclusive [inhibitor, full curve, poor fit]. For `CCCC(C)NC(=O)CSc1nnc(-c2c[nH]c3ccccc23)o1` (centres undefined), the Potency was inconclusive [inhibitor, full curve]. With `Cc1cccc(CCN2CCN=C2N(C)C)c1` the Potency was inconclusive [inhibitor, full curve, poor fit]. `O=C(NCCCN1CCN(c2ccccc2)CC1)c1nnc(Cc2c(F)cccc2Cl)o1` was tested, and the Potency was “inactive”. For `CCCNC(=O)c1ccc2c(c1)N=C(C)c1c(C)ccc(C)c1S2`, the Potency was “inactive”. In the case of `O=C(NCc1ccc(Cl)cc1)C(=O)NCC(c1cccs1)S(=O)(=O)c1ccc(Cl)cc1` (centres undefined), the Potency is reported as “inactive”. `O=C(CNC(=O)c1ccccc1F)OC(C(=O)Nc1cc(C(F)(F)F)ccc1Cl)c1ccccc1` (centres undefined) was tested, and the Potency was inconclusive [inhibitor, single point]. `CCNc1ccc(S(=O)(=O)N2CCCCC2)cn1` was tested, and the Potency was inconclusive [inhibitor, full curve, poor fit]. In the case of `O=C(CCN1C(=O)c2ccccc2S1(=O)=O)NCc1ccccc1`, the Potency is reported as inconclusive [inhibitor, partial curve, poor fit]. With `Cc1onc(-c2ccccc2Cl)c1C(=O)Nc1ccc(CN2CCCC2)cc1` the Potency was inconclusive [inhibitor, partial curve, poor fit]. With `CCCCCC(CC(=O)NO)C(=O)NC(C(=O)N1CCCC1CO)C(C)C` (centres undefined) the Potency was “inactive”. For `COc1cccc(C2C(C(N)=O)=C(C)Nc3nc(CCCO)nn32)c1OC` (centres undefined), the Potency was inconclusive [inhibitor, full curve, poor fit]. In the case of `Cc1cccc(N2CCCC2=Nc2ccc(Br)cc2C#N)c1`, the Potency is reported as inconclusive [inhibitor, full curve]. With `COC(=O)C(C)Sc1nnc(Cc2cc(=O)[nH]c(=O)[nH]2)n1-c1cccc(OC)c1` (centres undefined) the Potency was inconclusive [inhibitor, full curve]. In the case of `O=C(NCCCO)/C(=C\c1ccco1)NC(=O)c1ccco1`, the Potency is reported as “inactive”. In the case of `CCOc1cccc(C2/C(=C(/O)c3ccc4c(c3)CC(C)O4)C(=O)C(=O)N2CCCn2ccnc2)c1` (centres undefined), the Potency is reported as inconclusive [inhibitor, full curve, poor fit].
